# Laboratory results from PubChem BioAssay AID1631 (National Center for Advancing Translational Sciences (NCATS), 2009).
# Among all 260,000 compounds or so, about 890 (0.34%) were called active. Inconclusive means that the source gave no clear call. Such entries were picked first, then a sample of the others. Calls follow the shape of the dose curve; as a rule, active = well fitted activation curve with a large enough effect; inconclusive = small, poorly fitted or top-dose-only effect; inactive = no such curve, though single readings can be large or run the other way. Potencies of inconclusive entries are left out as doubtful fits.
# Molecular target: Pyruvate kinase PKM (Homo sapiens) (UniProt P14618)
# Test: qHTS Assay for Activators of Human Muscle isoform 2 Pyruvate Kinase; also: nearly all actives have a fitted effect of over 55% in size
# Settings: purified PKM2, Kinase-Glo ATP luminescence; Potency: activation; activation: at 57.5 µM (top of the series), 0% is enzyme alone, no compound
# How it was run: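 Purified hPK-M2 (>95%) run at intermediate activity with 0.1 mM ADP and 0.5 mM PEP in 50 mM imidazole pH 7.2, KCl, MgCl2; 1 h room temperature. ATP formed read by Kinase-Glo luminescence; normalized to uninhibited and no-enzyme controls.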
# Potency is read from the fitted curve at half-maximal effect; tags tell the direction and shape of the fitted curve.
# UniProt P14618, sequence (P14618 whole entry, looked up, canonical isoform): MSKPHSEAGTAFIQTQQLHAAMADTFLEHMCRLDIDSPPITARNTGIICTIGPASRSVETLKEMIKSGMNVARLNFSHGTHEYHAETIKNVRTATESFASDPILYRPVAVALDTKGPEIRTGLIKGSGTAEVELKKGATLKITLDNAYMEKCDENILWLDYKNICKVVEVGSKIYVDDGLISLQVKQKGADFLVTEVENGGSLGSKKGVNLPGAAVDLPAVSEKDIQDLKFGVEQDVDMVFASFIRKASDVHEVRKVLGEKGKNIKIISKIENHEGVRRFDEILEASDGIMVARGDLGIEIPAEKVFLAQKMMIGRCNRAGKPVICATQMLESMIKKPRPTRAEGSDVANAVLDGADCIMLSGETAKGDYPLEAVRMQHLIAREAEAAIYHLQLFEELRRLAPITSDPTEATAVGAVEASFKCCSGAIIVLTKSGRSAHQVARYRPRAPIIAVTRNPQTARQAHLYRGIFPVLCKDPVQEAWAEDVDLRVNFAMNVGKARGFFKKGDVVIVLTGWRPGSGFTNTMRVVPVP
row,SMILES,Potency
1,Cc1cc(N/N=C/c2ccc(O)cc2)c2cccc(C)c2n1,inactive
2,CCC(=O)N1N=C(c2ccc(Cl)cc2)CC1c1ccco1 (centres undefined),"inconclusive [rising, partial curve]"
3,Cc1ccc(NC(=O)c2ccccc2)cc1,inactive
4,O=C(NCc1cccs1)c1cc2ccccc2o1,"inconclusive [rising, single point]"
5,COc1ccc2c(c1OC)C(=O)OC2N1C(=O)CC[C@H]1C(=O)Nc1ccc(F)cc1F (some centres undefined),"inconclusive [rising, single point]"
6,CC(C)CC1NC(=O)N(CC(=O)N2CCN(S(=O)(=O)c3ccc4ccccc4c3)CC2)C1=O (centres undefined),"inconclusive [rising, partial curve]"
7,COc1ccc(S(=O)(=O)N(C(=O)C(C)C)c2ccc3oc(=O)sc3c2)cc1,"inconclusive [rising, single point]"
8,COc1ccc(CCNC(=O)c2ccc(SC)cc2OC)cc1,inactive
9,C/C=C/C=C\C(=O)Nc1cccc(C2=NOC3(C2)C[C@H](C(N)=O)N(C(=O)/C=C/C)C3)c1 (some centres undefined),"inconclusive [rising, partial curve]"
10,O=S(Cc1ccc(Br)cc1)Cc1nnc(SCc2ccc(Cl)cc2)n1-c1ccccc1 (centres undefined),inactive
11,O=C1CC(Nc2ccc(N3CCOCC3)cc2)C(=O)N1c1ccccc1 (centres undefined),inactive
12,C[C@H](NC(=O)c1nc[nH]c1C(=O)N[C@@H](C)c1ccccc1)C(=O)OC(C)(C)C,inactive
13,C/C(=N\Nc1ccc2nncn2n1)c1ccco1,inactive
14,O=C(CSC1=NCCS1)Nc1nc2ccccc2s1,inactive
15,C/C(N)=C(/C#N)C(=O)CSc1ccc2c(c1)OCCO2,active: 14.1 µM
16,CC(C)NC(=O)COc1ccc(/C=N/NS(=O)(=O)c2ccccc2)cc1,"inconclusive [rising, single point]"
17,Clc1ccccc1CO/N=C1\CCCc2nonc21,"inconclusive [rising, partial curve]"
18,CCS(=O)(=O)Nc1ccc(C2=NN(C(C)=O)C(c3cccs3)C2)cc1 (centres undefined),active: 4.47 µM
19,Cc1cc(N(CCO)CCO)ccc1C(c1ccc(N(CCO)CCO)cc1C)c1ccccc1Cl,"inconclusive [rising, partial curve]"
20,Cc1csc(NC(=O)CSc2nnc(-c3ccncc3)o2)n1,"inconclusive [rising, partial curve]"
21,COc1ccc(CCNCC(=O)Nc2c(C)cc(C)cc2C)cc1OC,"inconclusive [rising, single point]"
22,Cc1cccc(OCCSc2nc3c([nH]2)c(=N)ncn3Cc2ccccc2)c1,inactive
23,CCCn1c(=O)c(C(=O)NNC(=O)c2ccccc2Cl)c(O)c2ccccc21,inactive
24,COc1ccc(C)cc1C(=O)CCC(=O)Nc1ccccc1N1CCOCC1,"inconclusive [rising, single point]"
25,Cc1ccc(N(Cc2cc3ccc(C)cc3[nH]c2=O)S(C)(=O)=O)c(C)c1,active: 22.4 µM

row,SMILES,Potency
1,O/N=C(\c1ccc(Cl)cc1Cl)c1ncc(C(F)(F)F)cc1Cl,inactive
2,CN(C)c1cc[n+](CC(=O)c2ccc(OC(F)F)cc2)cc1,inactive
3,CCN(CC)c1ccc2cc(S(=O)(=O)c3ccc(Cl)cc3)c(=O)oc2c1,"inconclusive [rising, partial curve]"
4,COc1ccccc1S(=O)(=O)Nc1ccc2cn[nH]c2c1,"inconclusive [rising, single point]"
5,COc1ccc(S(=O)(=O)Nc2nccs2)cc1OC,"inconclusive [rising, partial curve]"
6,CCc1cc2ccc(OC)cc2nc1SCC(=O)N1CCN(C(=O)c2ccco2)CC1,inactive
7,O=C(NCc1ccc(Cl)cc1)N1CCN(S(=O)(=O)c2ccccc2)CC1,"inconclusive [rising, partial curve]"
8,C/C=C(/C(=C/C)c1ccc(O)cc1)c1ccc(O)cc1,inactive
9,COC(=O)CSc1[nH]c2ccc(Br)cc2c1[N+](=O)[O-],"inconclusive [rising, partial curve]"
10,Cc1cccc(N2CCN(C(=O)Cn3sc4nc(C)cc(C)c4c3=O)CC2C)c1 (centres undefined),"inconclusive [rising, single point]"
11,O=C1CCCC2=C1C(c1ccco1)Nc1ccc3ccccc3c12 (centres undefined),inactive
12,S=C(c1ccc(-c2cccc(Cl)c2)o1)N1CCCCC1,"inconclusive [rising, single point]"
13,CCN(C(=S)Nc1cccc(C)c1)c1ccccc1,"inconclusive [rising, partial curve]"
14,Cc1ccc(CS(=O)(=O)c2ccc(C(=O)N3CCN(c4ccccn4)CC3)cc2[N+](=O)[O-])cc1,inactive
15,NC(=O)CN1CCN(C(=O)NC2CCCCC2)CC1,"inconclusive [rising, single point]"
16,Cc1cccc(N2C(=O)C(Cl)=C(N3CCOCC3)C2=O)c1,"inconclusive [rising, single point]"
17,Cc1ccc(N2CCN(/N=C/C=C/c3ccccc3)CC2)cc1,"inconclusive [rising, single point]"
18,NC(=O)CSc1nnc(-c2ccc(S(=O)(=O)N3CCCC3)cc2)o1,"inconclusive [rising, single point]"
19,O=C(O)C1CC(c2ccccc2)=Nc2ccccc2S1 (centres undefined),"inconclusive [rising, full curve]"
20,N#Cc1ccccc1OCC(=O)NC(=O)NCc1ccco1,inactive
21,Cc1nc2nc(COc3ccccc3)[nH]n2c(=O)c1Cc1ccccc1,"inconclusive [rising, full curve, poor fit]"
22,Cc1c(C(=O)N(C)Cc2ccccc2)oc2ccc(S(=O)(=O)N3CCCC3)cc12,"inconclusive [rising, single point]"
23,Cc1ccc(-c2cccc(NC(=O)C3C(C(=O)O)[C@@H]4C=C[C@H]3C4)c2)o1 (some centres undefined),"inconclusive [rising, single point]"
24,CC1=NNC(=O)/C1=C\c1cn(-c2ccccc2)nc1-c1ccccc1,"inconclusive [rising, full curve, poor fit]"
